Measured values: the supplement of paper PMC3334620
Over roughly 33,000 sequences, “E-score (-0.5 to 0.5)” has its median near -0.012; the highest 2% begin near 0.29. This is one part of the list.

These sequences were tested against T1, Ybr033w (UniProt P38073) (assay: PBM E-score (8-mer binding enrichment) (E-score (-0.5 to 0.5)); higher = stronger / more preferred TF binding; most listed sequences are background and not binding sites). Conditions: protein concentration: 200 nM; construct: GST-full length.
T1 sequence: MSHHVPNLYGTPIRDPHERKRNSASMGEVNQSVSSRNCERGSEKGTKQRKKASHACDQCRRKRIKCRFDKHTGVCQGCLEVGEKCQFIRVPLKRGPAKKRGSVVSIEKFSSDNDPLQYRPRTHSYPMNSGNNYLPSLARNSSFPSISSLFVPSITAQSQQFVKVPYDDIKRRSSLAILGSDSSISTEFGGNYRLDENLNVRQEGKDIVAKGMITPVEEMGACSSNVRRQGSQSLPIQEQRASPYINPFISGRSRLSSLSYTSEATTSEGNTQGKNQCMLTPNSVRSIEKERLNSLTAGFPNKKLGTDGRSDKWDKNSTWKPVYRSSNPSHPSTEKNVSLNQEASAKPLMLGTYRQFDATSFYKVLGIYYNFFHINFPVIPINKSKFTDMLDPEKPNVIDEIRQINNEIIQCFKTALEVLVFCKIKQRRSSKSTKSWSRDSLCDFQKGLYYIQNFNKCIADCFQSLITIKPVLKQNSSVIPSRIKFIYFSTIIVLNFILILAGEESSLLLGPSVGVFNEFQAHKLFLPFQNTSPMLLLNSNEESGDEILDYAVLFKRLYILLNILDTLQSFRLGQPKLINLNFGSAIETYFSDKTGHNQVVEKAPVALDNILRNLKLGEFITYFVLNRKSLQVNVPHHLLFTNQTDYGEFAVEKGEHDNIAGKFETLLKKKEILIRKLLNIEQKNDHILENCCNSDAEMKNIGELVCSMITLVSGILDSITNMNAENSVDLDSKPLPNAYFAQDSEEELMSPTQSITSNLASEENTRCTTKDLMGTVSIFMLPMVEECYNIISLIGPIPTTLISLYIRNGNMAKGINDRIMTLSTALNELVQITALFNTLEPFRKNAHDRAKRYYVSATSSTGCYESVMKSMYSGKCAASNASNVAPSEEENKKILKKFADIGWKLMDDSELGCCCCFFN
Procedure, shortened: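 For each ungapped eight-base word taken together with its reverse complement, the Universal PBM Analysis Suite assigned an E-score. Binding data came from GST-tagged yeast transcription factors, applied at about 100-200 nM, on universal all-10-mer Agilent arrays made double-stranded by primer extension. Fluorescent anti-GST marked bound protein, and scans were normalised with masliner.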

Sequence	PBM E-score
ACGACTAC	-0.141
GCTGTGAC	-0.157
ATCCTCCA	0.0257
TCTGTTCA	0.0424
CTATAGGA	-0.0273
ACACCCCA	-0.16
CAACAGTG	-0.0169
CTACTACA	0.215
GAATTATA	0.307
CGATTGAG	-0.0284
ACTATGAG	0.024
GAAATTTA	0.231
ATAAAAGG	-0.0365
GGAAAGAC	-0.159
TCTATTAA	0.292
AGTCCAAG	-0.0526
GCAATACC	0.00078
GCGACCTA	-0.0108
AGGACAAC	0.0906
GCTGGTGA	0.0692
CCTAAGCG	-0.164
CCGTGCCA	-0.269
GGCAAAAC	-0.0116
CACGAAAC	0.106
CACAGAAG	-0.0363

Sequence	PBM E-score
ACGATATA	0.0404
CCTCCAAC	-0.0879
TCATCCGA	0.148
CCGACGCG	-0.0554
TAGCAGCA	-0.0377
TAATGGGA	-0.0339
ATATAAGC	-0.0175
ACATGCTC	-0.0212
CAACAGCG	-0.126
CGGAGGAG	-0.268
ACGCTCGG	0.0921
AACGCCCT	-0.131
CTTAAGTC	-0.00164
GAGGGACC	-0.361
CAAATCGC	-0.165
AAAACGAT	0.162
CAAGGAGA	-0.0772
ATTATACA	0.222
AGCGACAT	-0.0513
CCGAACCG	-0.217
GCCGGCAC	-0.121
GGATGCAC	-0.211
ATTCGAAA	0.12
AGTTGGTC	-0.066
GGGGCCAC	-0.341

Sequence	PBM E-score
ATGACAGA	0.0497
ATTACAGG	0.326
ACATATAA	0.246
AACTACGT	0.0877
GTTAGCCA	-0.0557
CGCAATAA	0.223
CATAACGA	0.0759
TAGTGCAA	0.197
CTTGCGGA	-0.067
ATGTGTGC	-0.11
ACGTAACA	0.0668
ATCTAAGA	0.132
ACGGCCGT	-0.351
AAGGGAAC	0.0259
GGACCGAA	0.061
CTGGTAGC	-0.129
CATAGTCG	0.0567
ACCGGACG	-0.163
ACCCTCCG	-0.283
AAGAATGC	0.142
CGTATTGA	0.0369
AGCGCTTG	-0.103
GTGGTAAC	0.0507
ATATGGAA	0.0484
CGTCAAAA	0.108

Sequence	PBM E-score
AGTTCAGC	-0.229
ATGAAGTA	0.15
TAAAAATA	0.285
AATCTCGT	0.0658
CCTCACAA	0.0297
GAATATAC	0.141
GTCGTCAA	-0.115
CGATTGGA	0.0255
ACTATAAA	0.226
GGGCACTA	-0.18
ATATCTTG	0.288
AATCGACG	0.0656
CAAGGACA	-0.126
AACAACAG	0.189
ACAGAAAG	-0.0583
AGAGTGTC	0.214
CTCAAAGA	0.0377
GTATAGTA	0.173
CAGGTCCC	-0.232
AGCACATG	0.0824
ATATGCAT	0.02
ACCTTTAC	-0.0424
GGCGGTGA	-0.163
GCAGTCGA	-0.0467
ACGGCTAA	0.0465

Sequence	PBM E-score
TATCAACA	0.196
CGCGCCCA	-0.154
TAACTTAA	0.283
GAGACAAA	-0.0572
CTTAATAA	0.182
AACAGTGC	0.0632
CACGAGTG	-0.286
GAAATAAC	0.159
CTATGGAG	-0.0955
TATTCTGA	0.0151
AAGTTTAC	0.154
CTAGACGA	-0.0898
ATAGTTTA	0.107
AGTACGGC	-0.0831
GCTTGAGA	-0.123
AGACTGGG	-0.174
ACACCGGG	-0.143
GAATTGCA	0.039
CCAGCTCC	-0.229
ATACCTAC	0.05
GATGACCC	-0.208
ACTCGAAC	-0.0528
AGACTGCG	-0.23
CTTCACTA	0.0917
TAGTGCCA	-0.132

Sequence	PBM E-score
ACCGAGGA	-0.0867
ACGCTAGA	-0.102
AGTATGTA	0.0368
CCATACGA	0.0671
ACAATCTG	0.0774
ATCAAGTA	0.227
TAGTAAAA	0.247
AAGCAGTC	-0.0621
TATCCTAA	0.198
CGACTGTA	-0.311
ACACCGGC	-0.144
AAAGACTT	0.0525
ACTGAGCT	0.0554
CTGAGATA	0.0588
GTCAATGA	-0.0551
AAAATGCG	0.139
CAAGGCGC	-0.148
GGGAAAGA	-0.00714
TAAAGATA	0.213
GGGTGCAA	0.0248
GGAGCATA	-0.0292
GTTTTCAA	0.146
ACTTGGTC	0.233
ACTATGGG	-0.0842
CACCGTTC	-0.12

Sequence	PBM E-score
CCGCCACG	-0.188
AGTCGTCC	-0.0173
AAGCATAC	0.0655
ACTGCCAC	-0.0586
GGCGCTGA	0.0187
ATCATGGC	0.0203
ACATGTCG	0.191
ATAGGAAG	0.0807
ATGCCAGG	-0.222
AGGAACTA	0.131
CGTGATCA	-0.0179
AATCGTTA	0.111
ATATGCCC	-0.0433
TCCACGGA	0.102
ATAAAGCA	0.193
ATATCAAG	0.253
CCCCTGAG	-0.264
AGATGTAA	0.161
CATACAGG	-0.13
ACTGAGGG	-0.311
CTATCATC	0.2
CGGTCCAA	-0.274
TTCGCGAA	0.193
CATAGATA	0.155
CGGAAAGC	0.0357

Sequence	PBM E-score
ATCTGCCC	-0.183
AAACTTAG	0.176
TCGATACA	0.298
ATGGAAGC	0.04
CAGACATC	0.0217
AATGCGGG	0.156
CCGATAAC	0.135
ACAGTGAT	0.105
ATTAGGAG	0.108
GGCGGTAA	0.0971
GTTTTGAA	0.213
AAGGTTCC	0.0932
ATCGCACC	-0.0825
CCAAGTGA	-0.0871
GGCGTACC	-0.061
TACTTTGA	0.155
TAACGGTA	0.102
GGGTCCGA	-0.206
CCCCTAAA	-0.365
CCTGATAA	0.0793
CATGGAGA	0.0398
CCAGGAGA	0.0757
GGATCGCA	-0.0884
CAGGCTGC	-0.118
GTATTAAA	0.283

Sequence	PBM E-score
CATCGCTC	-0.186
CCTAACAA	0.165
GTACTCAC	0.0798
TTGTCAAA	0.0834
TAGGTAGA	0.0806
AAGTAAAG	0.05
CCTTCAAA	0.0448
ATTCCCAG	0.137
GCAAATAA	0.322
ATATGCTA	0.172
CGTCTCTA	-0.108
AACCTTCG	0.106
CTGGCGAC	-0.17
AACCGTCA	0.0483
CTTGAATA	0.155
CCTCCCAA	-0.191
CAAATTGC	0.0369
GGAGGAGA	-0.121
GAACTAGA	0.0565
